Laboratory results: PubChem BioAssay AID488969 (Vanderbilt High Throughput Screening Facility, 2010)
The full ranking holds about 110,000 compounds; the median of “z-score” is about -0.1, and the highest 2% start at about 2. This is one part of the list. Active and inactive are the calls of the source.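 How the source made its calls: active means z-score in the third read window above 3 or below -3; inactive means the rest.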

target: Metabotropic glutamate receptor 8 (Rattus norvegicus) (UniProt P70579); experiment: rat mGluR8 modulators via GIRK flux, primary screen, cell-based, thallium flux, HTS (AID 488969); conditions: HEK293 rat mGluR8, GIRK (G protein-gated inwardly rectifying potassium channel) thallium flux, FluoZin2; at 10 µM; stronger effect = higher value; submaximal glutamate (EC20) added with thallium
Chain of UniProt P70579 (P70579 whole entry, looked up): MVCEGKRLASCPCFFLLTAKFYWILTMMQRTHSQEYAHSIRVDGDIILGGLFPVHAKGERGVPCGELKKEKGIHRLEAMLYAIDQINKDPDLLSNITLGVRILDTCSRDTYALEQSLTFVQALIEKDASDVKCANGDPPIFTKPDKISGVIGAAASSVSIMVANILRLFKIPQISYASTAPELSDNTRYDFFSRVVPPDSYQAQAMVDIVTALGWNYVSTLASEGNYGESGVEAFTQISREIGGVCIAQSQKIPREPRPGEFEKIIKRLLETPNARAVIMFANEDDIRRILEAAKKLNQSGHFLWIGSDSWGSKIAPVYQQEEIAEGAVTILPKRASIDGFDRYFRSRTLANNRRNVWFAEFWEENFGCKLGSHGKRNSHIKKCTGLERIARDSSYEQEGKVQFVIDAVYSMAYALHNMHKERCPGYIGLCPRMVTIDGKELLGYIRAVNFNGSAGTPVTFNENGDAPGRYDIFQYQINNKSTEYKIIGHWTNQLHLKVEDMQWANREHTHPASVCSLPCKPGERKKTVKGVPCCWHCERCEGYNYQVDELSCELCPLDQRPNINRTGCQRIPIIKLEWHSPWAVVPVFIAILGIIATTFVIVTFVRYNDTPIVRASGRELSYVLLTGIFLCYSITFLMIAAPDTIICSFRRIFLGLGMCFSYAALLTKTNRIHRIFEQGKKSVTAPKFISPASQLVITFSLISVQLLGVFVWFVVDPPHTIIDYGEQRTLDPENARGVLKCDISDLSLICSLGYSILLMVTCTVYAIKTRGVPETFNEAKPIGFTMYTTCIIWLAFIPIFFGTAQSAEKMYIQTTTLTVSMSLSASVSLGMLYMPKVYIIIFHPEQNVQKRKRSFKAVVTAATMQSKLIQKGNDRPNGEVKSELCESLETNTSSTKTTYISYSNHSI

Q: For `O=C(CSC(=S)N1CCOCC1)N1N=CCC1c1ccccc1` (stereo not given), which z-score is on record?
A: -0.267

Q: For `CCOc1ccc(Cl)cc1S(=O)(=O)N1CCCC1`, which z-score is on record?
A: -0.083

Q: For `COC(=O)c1[nH]c2cccc(OC)c2c1NC(=O)C(C)N1CCC(C)CC1` (stereo not given), which z-score is on record?
A: -0.133

Q: For `CC(C)NC(=O)c1ccccc1-c1ccccc1`, which z-score is on record?
A: -0.135

Q: How did the z-score turn out when `Clc1ccc(CSc2nc3ccncc3[nH]2)cc1` was run?
A: 0.673

Q: `COc1cc(CNCC(C)C)cc(Br)c1OCC(=O)Nc1ccccc1` was tested. Which z-score did it give?
A: 2.21

Q: With `CC(=O)Oc1c(C(=O)c2nnc(C)o2)c(=O)n(Cc2ccccc2)c2ccccc12` as the molecule, how does the z-score read?
A: 2.07

Q: For `COc1ccc(S(=O)(=O)N(CCc2ccccc2)CC(=O)O)cc1C`, which z-score is on record?
A: 0.397

Q: How did the z-score turn out when `CCC(=O)N1CCc2cc(S(=O)(=O)NC(C(=O)Nc3cccc(C)n3)C(C)C)ccc21` (stereo not given) was run?
A: 0.0148

Q: Which z-score does the source give for `CCN(CC)CC(=O)NN=C(c1ccccc1)c1ccccc1` here?
A: -0.364

Q: `Cn1cccc1/C=C1\SC(=O)N(CC(=O)Nc2ccc(Cl)cc2)C1=O` was tested. Which z-score did it give?
A: -0.123

Q: Which z-score does the source give for `CCNc1nc(Cl)nc(NCc2ccccc2)n1` here?
A: -0.148

Q: `Cc1ccc(-c2n[nH]c(=S)n2/N=C/C=C/c2ccccc2[N+](=O)[O-])cc1` was tested. Which z-score did it give?
A: 0.382

Q: With `FC(F)(F)c1ccc(Sc2nnc(-c3cccs3)n2CC2CCCO2)nc1` (stereo not given) as the molecule, how does the z-score read?
A: 0.926

Q: How did the z-score turn out when `CSc1cccc(NC(=O)CN(c2ccccc2)S(=O)(=O)N(C)C)c1` was run?
A: active: 3.6

Q: How did the z-score turn out when `CCOC(=O)c1sc(N2N=C(C)/C(=C\c3ccc(OCC(=O)OC)cc3)C2=O)nc1C` was run?
A: -0.119

Q: How did the z-score turn out when `COc1ccccc1OCC(=O)NCCSCc1cccc(Cl)c1` was run?
A: -0.223

Q: `O=C(NC(=S)Nc1ccc2c(c1)OCO2)c1ccc(Cl)cc1` was tested. Which z-score did it give?
A: 0.837

Q: For `CCN1C(=O)C2(C(C#N)=C(N)Oc3n[nH]c(-c4ccccc4)c32)c2ccccc21` (stereo not given), which z-score is on record?
A: -0.219

Q: Which z-score does the source give for `O=C(NCCN1CCOCC1)c1cc(Sc2ccccc2Cl)nc2ccccc12` here?
A: -1.39

Q: Which z-score does the source give for `CCOc1ncccc1C(=O)OCCN1C(=O)c2ccccc2C1=O` here?
A: 0.0749

Q: `CC(NC(=O)OCc1ccccc1)C(=O)NCC1CCCO1` (stereo not given) was tested. Which z-score did it give?
A: 1.09

Q: With `Cc1ccc(S(=O)(=O)NCC2CCC(C(=O)O)CC2)cc1` (stereo not given) as the molecule, how does the z-score read?
A: -0.694

Q: With `CCOc1cc(C(=O)Nc2cc(=O)n(C)c(=O)n2C)cc(OCC)c1OCC` as the molecule, how does the z-score read?
A: -0.395

Q: `Cc1[nH]n(-c2ccc([N+](=O)[O-])cc2)c(=O)c1C=NCCN1CCN(C(=O)c2cccc(F)c2)CC1` was tested. Which z-score did it give?
A: 0.0422

Q: How did the z-score turn out when `O=C(Nc1nnc(SCc2ccccc2F)s1)c1ccco1` was run?
A: -0.172

Q: How did the z-score turn out when `COc1cccc(C(=O)NC2(C(F)(F)F)N=C3SCCN3C2=O)c1` (stereo not given) was run?
A: 0.254

Q: For `O=C(NCc1cccc(C(F)(F)F)c1)C1CC(c2c(Cl)cccc2Cl)=NO1` (stereo not given), which z-score is on record?
A: -0.217

Q: `CCCn1c(N2CCN(CC(=O)Nc3ccc4c(c3)OCCO4)CC2)nc2ccccc21` was tested. Which z-score did it give?
A: -0.631

Q: How did the z-score turn out when `Cn1c(=O)oc2cc(S(=O)(=O)NCCN3CCN(c4ccccc4F)CC3)ccc21` was run?
A: -0.14

Q: How did the z-score turn out when `COc1ccc(CNC(=O)c2ccc3c(c2)N(C)C(=O)CS3=O)cc1` (stereo not given) was run?
A: -0.118

Q: `N#C/C(=C\c1cc([N+](=O)[O-])c(N2CCCCC2)cc1N1CCCCC1)c1nn(-c2ccccc2)c(N)c1C#N` was tested. Which z-score did it give?
A: 0.331

Q: `CNC(=O)/C(C#N)=C/c1ccc(-c2ccc(OC)cc2[N+](=O)[O-])o1` was tested. Which z-score did it give?
A: -0.186

Q: `CCCCn1c(NCc2ccccc2O)nc2ccccc21` was tested. Which z-score did it give?
A: 0.033

Q: For `Cc1ccc(NC(=O)c2cccc3c2-c2ccccc2C3=O)cc1C`, which z-score is on record?
A: -0.15

Q: How did the z-score turn out when `COC(=O)Cc1c(C)nc2nc(-c3ccco3)[nH]n2c1=O` was run?
A: 2.68

Q: With `O=C(CSc1nnc2c3ccccc3c3ccccc3c2n1)Nc1ccccc1F` as the molecule, how does the z-score read?
A: -0.673

Q: With `CCCCSc1nn[nH]n1` as the molecule, how does the z-score read?
A: -0.967

Q: Which z-score does the source give for `Cc1cc(C)cc(CSc2nnc(C)c(=O)[nH]2)c1` here?
A: -0.192

Q: How did the z-score turn out when `CCS(=O)(=O)N1CCC(C(=O)NCc2cccc(OC)c2)CC1` was run?
A: -0.486

Q: Which z-score does the source give for `Cc1nc2c(C#N)c(C)[nH]n2c(=O)c1Cc1ccccc1` here?
A: -0.679

Q: `CC1CCCN(C(=O)Cn2nnc(-c3cccnc3)n2)C1` (stereo not given) was tested. Which z-score did it give?
A: -0.208

Q: How did the z-score turn out when `CCN1CCN(c2ncnc3c2cnn3-c2ccccc2)CC1` was run?
A: 0.0325

Q: How did the z-score turn out when `CCOC(=O)c1ccccc1NS(=O)(=O)c1ccccc1` was run?
A: -0.878

Q: `O=C(Oc1ccccc1C(=S)N1CCCCC1)c1cc([N+](=O)[O-])cc([N+](=O)[O-])c1` was tested. Which z-score did it give?
A: 1.47

Q: `CCOc1cc(N2CCOCC2)c(OCC)cc1NC(=O)COC(=O)c1cc2ccccc2cc1O` was tested. Which z-score did it give?
A: 0.511

Q: Which z-score does the source give for `CCCCC(=O)NNC(=S)NC(=O)c1cccc([N+](=O)[O-])c1` here?
A: 0.267

Q: For `CS(=O)(=O)N1CC(C(=O)NC2CCCC2)Oc2ccc(Cl)cc21` (stereo not given), which z-score is on record?
A: 0.108

Q: With `CC(=O)Nc1ccc(C(=O)OCc2ccc(Cl)c(Cl)c2)cc1` as the molecule, how does the z-score read?
A: -0.193

Q: Which z-score does the source give for `CCOC(=O)C(NC(=O)c1cccc(Cl)c1)(OCc1ccccc1)C(F)(F)F` (stereo not given) here?
A: -1.19

Q: For `CCCCN(C)C1=Nc2cccc3cccc1c23`, which z-score is on record?
A: active: 3.17

Q: `O=C(O)CNC(=O)/C(=C/c1ccco1)NC(=O)/C=C/c1ccccc1` was tested. Which z-score did it give?
A: 0.13

Q: `COc1ccc(Cc2nnc(SCC(=O)c3ccccc3)o2)cc1` was tested. Which z-score did it give?
A: -1.09

Q: With `COc1ccc2nc(SCC(=O)Nc3c(C)cc(C)cc3C)[nH]c2c1` as the molecule, how does the z-score read?
A: 0.00551

Q: How did the z-score turn out when `Cc1nc2ccc(S(=O)(=O)NCC(=O)NCCN3CCCCCC3)cc2s1` was run?
A: -0.192

Q: Which z-score does the source give for `Cn1c(NC(=O)c2ccc(S(=O)(=O)N3CCOCC3)cc2)cc(=O)n(C)c1=O` here?
A: 0.0197

Q: `O=C(Nc1ccccc1C(=O)Nc1ccccc1C(=O)NCc1ccco1)c1ccco1` was tested. Which z-score did it give?
A: -0.311

Q: How did the z-score turn out when `CCC(=O)N1CCN(c2ccc(Cl)cc2NC(=O)Cc2ccccc2)CC1` was run?
A: -1.47

Q: With `Cc1ccc(SCC(=O)OCn2nnc3ccccc3c2=O)cc1C` as the molecule, how does the z-score read?
A: -0.136

Q: With `Cc1cccc(N2CCN(C(=O)CN(C)S(=O)(=O)c3ccc4c(c3)CCC(=O)N4)CC2)c1C` as the molecule, how does the z-score read?
A: -0.263

Q: With `C=CCNC(=O)/C(C#N)=C\c1cc(Cl)c(O)c(OCC)c1` as the molecule, how does the z-score read?
A: -2.8

Q: For `O=C1OCCC1Sc1ncnc2sc3c(c12)CCC3` (stereo not given), which z-score is on record?
A: -0.028

Q: `Cc1ccc(NC2=CC(=O)CC(c3ccc(Cl)cc3)C2)cc1` (stereo not given) was tested. Which z-score did it give?
A: 0.0314

Q: For `O=S(=O)(Nc1nc2ccccc2nc1Nc1ccc2c(c1)OCO2)c1ccccc1`, which z-score is on record?
A: -0.165

Q: For `COc1cc(CNn2cn[nH]c2=S)cc(Cl)c1OCc1ccccc1`, which z-score is on record?
A: -0.1

Q: With `Cc1ccc2cc3c(NC(=O)CC(C)C)nn(C)c3nc2c1` as the molecule, how does the z-score read?
A: -0.274

Q: Which z-score does the source give for `CN(C)CCNC(=O)Cc1ccc([N+](=O)[O-])cc1` here?
A: -0.273

Q: With `Clc1ccc(N/N=C/c2ccncc2)cc1Cl` as the molecule, how does the z-score read?
A: 0.00108

Q: `CCOC(=O)c1ccccc1Oc1c(F)c(F)nc(NCCO)c1F` was tested. Which z-score did it give?
A: -0.535

Q: For `CCSc1nnc(-c2cccnc2)n1Cc1ccco1`, which z-score is on record?
A: -0.371
